Measured values published in PubChem BioAssay AID686979 (National Center for Advancing Translational Sciences (NCATS), 2013).
Screen size: about 420,000 compounds; about 50,000 (12%) were called active. Inconclusive means that the source gave no clear call. Such entries were picked first, then a sample of the others. Calls come from the whole dose curve; as a rule, active = well fitted inhibition curve with a large enough effect; inconclusive = small, poorly fitted or top-dose-only effect; inactive = flat fitted curve, though single readings scatter. No potency is given beside an inconclusive call; the fits are too rough.

assay: qHTS for Inhibitors of human tyrosyl-DNA phosphodiesterase 1 (TDP1): qHTS in cells in presence of CPT; details: chicken DT40 Tdp1-/-;hTDP1 cells + 20 nM CPT, ATP luminescence, 48 h; activity change, negative = growth inhibition: at 46.2 µM (top of the series) unless noted; note: nearly all actives have a fitted effect of over 55% in size
In short: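 Chicken DT40 Tdp1-/- cells complemented with human TDP1, 400 cells/well, exposed to compounds plus 20 nM camptothecin for at least 48 h at 37 C; viability read as ATP content by CellTiter-Glo luminescence.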
% is set by controls: 0 for no effect and ±100 for the full control effect; potency is the fitted concentration of half-maximal effect; tags give direction and shape of the fitted curve.

**Q.** For `CC(C)CNC(=O)/C=C/c1cccs1`, which “activity change, negative = growth inhibition” value is on record?
**A.** inactive: 0.811%

**Q.** For `CCOc1ccc(N2C(=O)/C(=C/c3ccco3)N(C)C2=S)cc1`, which “activity change, negative = growth inhibition” value is on record?
**A.** inactive: -27%

**Q.** With `O=C(CCN1C(=O)COc2ccccc21)NCCCN1CCN(c2ccccc2F)CC1` as the compound, how does the Potency read?
**A.** active: 18.4 µM

**Q.** With `CCN(CC)C(=O)C(=O)c1cccn1-c1cccc(OC)c1C#N` as the compound, how does the “activity change, negative = growth inhibition” value read?
**A.** inactive: 2.31%

**Q.** Which Potency does the source give for `O=C(CCSc1nc(-c2ccco2)cc(C(F)(F)F)n1)NCc1cccs1` here?
**A.** active: 16.4 µM

**Q.** With `CNc1nc(N)c([N+](=O)[O-])c(Nc2cccc(Cl)c2)n1` as the compound, how does the Potency read?
**A.** inconclusive [inhibitor, full curve]

**Q.** With `Cc1cc(C)n2nc(Cc3ccccc3)nc2n1` as the compound, how does the “activity change, negative = growth inhibition” value read?
**A.** inactive: -3.8%

**Q.** Which Potency does the source give for `COC(=O)[C@@]12C[C@@H](CC(=O)NCc3ccccc3)C(=O)N(CCc3ccc(OC)c(OC)c3)C1=CCC(C)(C)C2` here?
**A.** active: 13 µM

**Q.** With `CC1CN(C(NC(=O)C(C)(C)C)C(Cl)(Cl)Cl)CC(C)O1` (stereo unspecified) as the compound, how does the “activity change, negative = growth inhibition” value read?
**A.** inactive: -2.46%

**Q.** With `CC1CCN(C(c2nnnn2CCc2ccccc2)C(C)C)CC1` (stereo unspecified) as the compound, how does the Potency read?
**A.** inconclusive [inhibitor, single point]

**Q.** Which Potency does the source give for `CCn1c(=S)sc2c(=O)n(CC(=O)Nc3cc(OC)ccc3OC)c(C)nc21` here?
**A.** inconclusive [inhibitor, single point]

**Q.** Which “activity change, negative = growth inhibition” value does the source give for `COc1ccc(CNC(=O)C2Cc3ccccc3CN2C(=O)c2ccco2)cc1` (stereo unspecified) here?
**A.** inactive: -4.76%

**Q.** With `CC1Cc2ccccc2N1C(=O)Cn1cc([N+](=O)[O-])cn1` (stereo unspecified) as the compound, how does the “activity change, negative = growth inhibition” value read?
**A.** inactive: -6.01%

**Q.** For `Cc1n[nH]c(C)c1S(=O)(=O)N1CCC(C(=O)N2CCn3c2nc2ccccc23)CC1`, which Potency is on record?
**A.** inconclusive [inhibitor, single point]

**Q.** Which Potency does the source give for `CCOC(=O)C1(C)C=C(Nc2cccc(C(=O)O)c2)C(=O)N1c1ccccc1` (stereo unspecified) here?
**A.** inconclusive [inhibitor, single point]

**Q.** With `Cc1ccc(CNC(=O)C(=O)NCC(c2ccc3c(c2)OCO3)N2CCOCC2)cc1` (stereo unspecified) as the compound, how does the “activity change, negative = growth inhibition” value read?
**A.** inactive: 2.07%

**Q.** With `CCOc1ccc(-c2nc(CSc3nnc(C)s3)cs2)cc1OC` as the compound, how does the Potency read?
**A.** inconclusive [inhibitor, single point]

**Q.** Which Potency does the source give for `CC(NC(=O)c1ccc(Cn2cc([N+](=O)[O-])cn2)cc1)c1ccccc1` (stereo unspecified) here?
**A.** inconclusive [inhibitor, single point]

**Q.** Which Potency does the source give for `Brc1ccccc1-n1nnc(-c2ccnc3ccccc23)n1` here?
**A.** inconclusive [inhibitor, single point]

**Q.** With `COc1ccc(NC(=O)/C(Cl)=C(/Cl)S(=O)(=O)Cc2ccc(C)cc2)cn1` as the compound, how does the Potency read?
**A.** active: 0.517 µM

**Q.** Which Potency does the source give for `N=c1c(S(=O)(=O)c2ccc(Br)cc2)cc2c(=O)n3ccccc3nc2n1Cc1ccco1` here?
**A.** active: 9.2 µM

**Q.** For `O=C1c2ccccc2C(=O)c2c1cccc2N1CCN(C/C=C/c2ccccc2)CC1`, which “activity change, negative = growth inhibition” value is on record?
**A.** inactive: -28.2%

**Q.** For `CCSc1nc(-c2cccs2)nc2ccccc12`, which Potency is on record?
**A.** active: 14.6 µM

**Q.** For `COc1ccc(CC(N)c2csc(NC(=O)Nc3ccc(F)cc3)n2)cc1` (stereo unspecified), which Potency is on record?
**A.** active: 23.1 µM

**Q.** Which “activity change, negative = growth inhibition” value does the source give for `CCOC(=O)c1ccc(OC)c(OC)c1Cl` here?
**A.** inactive: 6.3%

**Q.** Which Potency does the source give for `CCCCn1nc(C(=O)NCC(=O)Nc2c(C)cccc2C)c2ccccc2c1=O` here?
**A.** inconclusive [inhibitor, single point]

**Q.** With `COc1cc(NC(=O)CSc2nc3nc(C)c(Cc4ccccc4Cl)c(C)n3n2)cc(OC)c1` as the compound, how does the Potency read?
**A.** inconclusive [inhibitor, single point]

**Q.** With `O=S(=O)(NC1CC1)c1ccc(S(=O)(=O)N2CCCC3(CCCCC3)C2)cc1` as the compound, how does the Potency read?
**A.** active: 13 µM

**Q.** Which Potency does the source give for `CC(=O)N(C)c1ccc(NC(=O)Nc2ccc(Cl)cc2)cc1` here?
**A.** inconclusive [inhibitor, single point]

**Q.** Which Potency does the source give for `O=C(NN1CCOCC1)c1cc(-c2cccc(Cl)c2)nc2ccccc12` here?
**A.** inconclusive [inhibitor, partial curve]

**Q.** For `COc1cc(/C=C(/C(=O)c2cccs2)c2nc3ccccc3[nH]2)ccc1O`, which Potency is on record?
**A.** inconclusive [inhibitor, single point]

**Q.** For `CCOc1ccc(CCN2C(=S)N([C@@H](CC(C)C)CN3CCCC3CN3C(=S)NC[C@@H]3Cc3ccc(O)cc3)C[C@@H]2Cc2ccc(O)cc2)cc1` (stereo partly specified), which Potency is on record?
**A.** active: 6.51 µM

**Q.** Which Potency does the source give for `COc1cc(Cl)ccc1OCc1cc(C(=O)N(C)Cc2cccc3cnccc23)no1` here?
**A.** active: 14.6 µM

**Q.** For `COC(=O)C1=C(C)NC(=O)NC1c1cccc(OC)c1OCc1ccccc1` (stereo unspecified), which activity change, negative = growth inhibition is on record?
**A.** inconclusive: -34.7% [inhibitor]

**Q.** For `Cc1cc(=O)oc2c3c(cc(OCC(=O)NCc4ccco4)c12)OC(C)(C)CC3`, which Potency is on record?
**A.** inconclusive [inhibitor, single point]

**Q.** With `CCC(=O)c1cn(CC(=O)Nc2ccc(OC)cc2)c2ccccc12` as the compound, how does the “activity change, negative = growth inhibition” value read?
**A.** inactive: -14.1%

**Q.** Which Potency does the source give for `C#CCOCCOCCOCCNc1nc(N2CCN(C(=O)CCCCCCCCCCNC(=O)[C@H](CCCCN)n3cc(CCO)nn3)CC2)nc(N2CCN(C(=O)CCCCCCCCCCNC(=O)[C@H](CCCCN)n3cc(C[C@@H](C)CC)nn3)CC2)n1` here?
**A.** inconclusive [inhibitor, single point]

**Q.** For `C/C(=N\NC(=S)Nc1ccccc1C)c1ccc(O)cc1`, which Potency is on record?
**A.** inconclusive [inhibitor, single point]

**Q.** Which Potency does the source give for `O=C(Nc1ccccc1)c1nc[nH]c1C(=O)Nc1ccccc1F` here?
**A.** inconclusive [inhibitor, single point]

**Q.** Which Potency does the source give for `COCCNC(=O)c1cccc2c(-c3cccc(C(N)=O)c3)coc12` here?
**A.** inconclusive [inhibitor, single point]

**Q.** With `COc1ccc(-n2c(=O)c(CCC(=O)N3CCN(c4cccc(OC)c4)CC3)nc3ccccc32)cc1` as the compound, how does the Potency read?
**A.** inconclusive [inhibitor, single point]

**Q.** For `Cc1ccc(-c2nc(-c3cc4cc(Cl)ccc4oc3=O)sc2C)cc1`, which “activity change, negative = growth inhibition” value is on record?
**A.** inactive: -11.2%

**Q.** For `O=C(Nc1ccc(Cl)cc1)N1CCCN(Cc2ccccc2F)C1`, which Potency is on record?
**A.** active: 25.1 µM

**Q.** For `CC(C)Cn1c(-c2cccc(Br)c2)nc2ccccc21`, which Potency is on record?
**A.** inconclusive [inhibitor, single point]

**Q.** For `Cc1ccc2nc(-c3ccccc3)c(CN3CCSCC3)n2c1`, which Potency is on record?
**A.** inconclusive [inhibitor, single point]

**Q.** Which Potency does the source give for `NC(=O)c1nsc(C(=O)N(c2ccccc2)C(C(=O)NCc2ccc(F)cc2)c2ccco2)c1N` (stereo unspecified) here?
**A.** inconclusive [inhibitor, single point]

**Q.** With `COc1ccccc1CN1CCCC2(CCN(C(=O)c3cccn3C)CC2)C1` as the compound, how does the “activity change, negative = growth inhibition” value read?
**A.** inactive: 3.3%

**Q.** For `Cc1ccc(CN2CC(C(=O)N3CCN(S(=O)(=O)c4ccc(C(C)C)cc4)CC3)CC2=O)cc1` (stereo unspecified), which Potency is on record?
**A.** inconclusive [inhibitor, single point]

**Q.** With `CCn1c(NC(=O)c2ccc(COc3ccc(C)cc3[N+](=O)[O-])o2)nc2ccccc21` as the compound, how does the Potency read?
**A.** active: 16.4 µM

**Q.** Which Potency does the source give for `O=S(=O)(c1ccc(Cl)cc1)N1CCN(C(=S)NCC2CCCO2)CC1` (stereo unspecified) here?
**A.** inconclusive [inhibitor, partial curve]

**Q.** Which Potency does the source give for `O=C(Nc1ccc(Cl)cc1)c1ccc(S(=O)(=O)N2CCOCC2)cc1` here?
**A.** inconclusive [inhibitor, single point]

**Q.** Which Potency does the source give for `O=C(CSc1nc2ncc(Cl)cc2[nH]1)NCCc1ccc(F)cc1` here?
**A.** inconclusive [inhibitor, single point]

**Q.** With `CC1(C)CC2CC(C)(CN2C(=S)NC(=O)c2ccccc2Cl)C1` (stereo unspecified) as the compound, how does the Potency read?
**A.** inconclusive [inhibitor, single point]

**Q.** With `CCOc1ccccc1NC(=O)C(=O)Nc1ccc2nc3n(c(=O)c2c1)CCCCC3` as the compound, how does the Potency read?
**A.** active: 23.1 µM

**Q.** With `Cc1nc2c3ccccc3nc(SCC(=O)c3ccc(Cl)cc3)n2n1` as the compound, how does the Potency read?
**A.** inconclusive [inhibitor, single point]

**Q.** For `Cc1cc(C)cc(NC(=O)C(Cc2ccccc2)NS(=O)(=O)c2ccc3c(c2)CCC(=O)N3)c1` (stereo unspecified), which Potency is on record?
**A.** inconclusive [inhibitor, single point]

**Q.** With `Cc1cnc(CNc2ccnc(-c3cccc(C#N)c3)n2)cn1` as the compound, how does the “activity change, negative = growth inhibition” value read?
**A.** inactive: 7.51%

**Q.** With `COc1cccc(-c2cnc(C(O)c3c(C)cc(C)cc3C)[nH]2)c1` (stereo unspecified) as the compound, how does the Potency read?
**A.** inconclusive [inhibitor, single point]

**Q.** For `CCOC(=O)N1CCC(NS(=O)(=O)c2ccc(C)c(Cl)c2)CC1`, which Potency is on record?
**A.** inconclusive [inhibitor, single point]

**Q.** For `Cc1ccccc1-c1cc2nc(NCc3ccncc3)n(C)c(=O)c2s1`, which Potency is on record?
**A.** inconclusive [inhibitor, single point]

**Q.** Which Potency does the source give for `Cc1ccc(S(=O)(=O)N2CCN(C(=O)Cn3c(=O)cnc4ccccc43)CC2)cc1` here?
**A.** inconclusive [inhibitor, partial curve]

**Q.** For `COC(=O)[C@H](Cc1ccccc1)NC(=O)Cn1ccc(NC(=O)OCc2ccccc2)nc1=O`, which Potency is on record?
**A.** inconclusive [inhibitor, partial curve]

**Q.** For `OCc1cnc(SCc2ccccc2F)n1Cc1ccc(F)cc1`, which Potency is on record?
**A.** inconclusive [inhibitor, single point]

**Q.** Which “activity change, negative = growth inhibition” value does the source give for `COc1ccc(/C=C(\C#N)C(=O)OCC(=O)Nc2c(C)cccc2C(C)C)cc1` here?
**A.** inactive: -9.08%

**Q.** Which Potency does the source give for `CC1Oc2ccccc2N(CC(=O)Nc2ccc(F)cc2)C1=O` (stereo unspecified) here?
**A.** inconclusive [inhibitor, single point]

**Q.** For `OCCC1CN(Cc2cnc(-c3ccc(Cl)cc3)nc2)CCN1C1CCCC1` (stereo unspecified), which Potency is on record?
**A.** active: 23.1 µM

**Q.** With `CCCNC(=O)C1(C)CCCN(Cc2cc(-c3ccccc3)nn2C)C1` (stereo unspecified) as the compound, how does the Potency read?
**A.** inconclusive [inhibitor, single point]

**Q.** With `O=C(NNc1nc2ccccc2s1)Nc1ccccc1` as the compound, how does the “activity change, negative = growth inhibition” value read?
**A.** inactive: -6.05%

**Q.** With `CN(C(=O)c1ccc(=O)[nH]c1)C1(C(=O)NC2CCCCC2)CCCCC1` as the compound, how does the “activity change, negative = growth inhibition” value read?
**A.** inactive: -4.68%

**Q.** For `CCn1c(=O)cc(SCC(=O)NCC2CCCO2)c2ccccc21` (stereo unspecified), which “activity change, negative = growth inhibition” value is on record?
**A.** inactive: 0.157%

**Q.** For `O=C(Nc1ccc2nc(N3CCOCC3)sc2c1)c1cc2ccccc2o1`, which Potency is on record?
**A.** active: 23.1 µM
